Laboratory results from PubChem BioAssay AID504339 (National Center for Advancing Translational Sciences (NCATS), 2011).
Out of some 390,000 compounds screened, about 17,000 (4.4%) were called active. The inconclusive results got no clear call from the source; some entries with a clear call stand among them for comparison. Calls follow the shape of the dose curve; as a rule, active = well fitted inhibition curve with a large enough effect; inconclusive = small, poorly fitted or top-dose-only effect; inactive = no such curve, though single readings can be large or run the other way. Potencies of inconclusive entries are doubtful fits and often do not repeat.

Target: Lysine-specific demethylase 4A (Homo sapiens) (UniProt O75164)
Test: qHTS Assay for Inhibitors of JMJD2A-Tudor Domain; also: nearly all actives have a fitted effect of over 50% in size
Details: AlphaScreen JMJD2A-Tudor / H3K4me3 peptide binding; activity change, negative = inhibition: at 114 µM (top of the series)
% is scaled to controls: 0 for no effect and ±100 for the full control effect; potency is read from the fitted curve at half-maximal effect; tags tell the direction and shape of the fitted curve.

UniProt O75164, sequence (O75164 whole entry, looked up, the tested form may be a part): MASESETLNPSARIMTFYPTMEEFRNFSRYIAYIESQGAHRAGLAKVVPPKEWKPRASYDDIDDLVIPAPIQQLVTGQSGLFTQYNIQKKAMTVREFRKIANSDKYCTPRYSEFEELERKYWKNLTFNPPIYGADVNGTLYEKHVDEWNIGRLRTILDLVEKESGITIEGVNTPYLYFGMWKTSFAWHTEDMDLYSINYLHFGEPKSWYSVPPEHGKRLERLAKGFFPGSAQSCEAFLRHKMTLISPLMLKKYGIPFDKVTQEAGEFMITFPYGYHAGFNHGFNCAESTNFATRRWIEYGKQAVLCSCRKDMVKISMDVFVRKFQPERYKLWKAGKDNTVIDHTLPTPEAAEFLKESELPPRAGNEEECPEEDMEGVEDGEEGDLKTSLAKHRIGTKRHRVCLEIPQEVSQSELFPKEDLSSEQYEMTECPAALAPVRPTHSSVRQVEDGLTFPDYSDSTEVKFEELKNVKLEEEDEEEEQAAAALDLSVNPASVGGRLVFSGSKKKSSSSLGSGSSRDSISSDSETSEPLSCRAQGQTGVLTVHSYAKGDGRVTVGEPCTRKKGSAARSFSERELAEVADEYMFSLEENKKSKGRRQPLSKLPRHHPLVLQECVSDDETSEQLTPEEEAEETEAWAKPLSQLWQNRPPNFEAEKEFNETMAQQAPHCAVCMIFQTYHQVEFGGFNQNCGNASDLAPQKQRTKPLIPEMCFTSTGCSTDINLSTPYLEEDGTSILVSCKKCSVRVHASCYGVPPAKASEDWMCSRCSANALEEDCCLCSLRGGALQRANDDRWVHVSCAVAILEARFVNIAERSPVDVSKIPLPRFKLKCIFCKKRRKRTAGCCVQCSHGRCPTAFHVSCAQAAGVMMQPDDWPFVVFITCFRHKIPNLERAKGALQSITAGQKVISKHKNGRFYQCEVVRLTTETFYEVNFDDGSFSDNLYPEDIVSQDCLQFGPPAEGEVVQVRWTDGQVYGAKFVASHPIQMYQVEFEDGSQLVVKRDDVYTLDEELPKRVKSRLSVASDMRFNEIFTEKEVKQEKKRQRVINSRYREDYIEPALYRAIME

Activity change, negative = inhibition, inactive:
Cc1ccc(-n2cc(CN3CCN(C(=O)c4ncn[nH]4)CC3)c(-c3ccc(F)cc3)n2)cc1 -15.1%
CC(C)CC(NS(=O)(=O)c1cccc(C(=O)O)c1)C(=O)O (configuration not stated) 1.4%
Cc1ccccc1C(=O)NNC(=O)CSc1nc2ccccc2c(=O)[nH]1 0.704%
CCOC(=O)CN(c1ccccc1C)S(=O)(=O)c1ccc(Cl)cc1 48.6%
CCOc1ccc(N2CC(C(=O)Nc3ccncc3)CC2=O)cc1 (configuration not stated) -14%
CCCn1c(S(=O)(=O)O)nc2ccccc21 -14.7%
COc1cc(NC(=O)c2cccnc2SC)cc(OC)c1OC -7.52% [at 57.1 µM]
Cc1ccc(S(=O)(=O)CC(=O)N2CCOCC2)cc1 -15.8%
N/C(=N\O)c1cn(Cc2ccccc2Cl)c2ccccc12 -19.9%
COc1ccc2cc(CCNC(=O)C(C)(C)C)c(=O)[nH]c2c1 -13.5%
CC(Oc1cccc(Cl)c1)C(=O)Nc1ccc(S(=O)(=O)N(C)C2CCN(C)CC2)cc1 (configuration not stated) -13.5%
Cc1cccc(-n2c(=O)c3c(c4cc(C)ccc4n3C)n(CC(=O)Nc3ccccc3C(F)(F)F)c2=O)c1 -3.07%
O=C(CSc1nc2scc(-c3ccccc3)c2c(=O)[nH]1)N1CCCCC1 -9.15%
Cc1ccc(CNc2ncnc3c2c(-c2ccccc2)cn3-c2cccc(Cl)c2)cc1 -19.6%
CCNC(=O)Nc1nc2ccccc2s1 -2.07%
COc1ccccc1Cc1nc2ccccc2nc1SCC(=O)NCCc1ccccc1 -1.62%

Potency, inconclusive:
c1cc(CNc2ccc3c(c2)OCO3)ccn1 70.8 µM [inhibitor, partial curve]
O=C(NC(=S)Nc1ccccc1N1CCCCC1)c1ccc(F)cc1 50.1 µM [inhibitor, partial curve]
CS(=O)(=O)N1CCC(NC(=O)Nc2ccc(OC(F)(F)F)cc2)CC1 39.8 µM [inhibitor, partial curve]
Brc1ccc(C2=CC(c3ccco3)n3ncnc3N2)cc1 (configuration not stated) 50.1 µM [inhibitor, partial curve]
C/C(=N\Nc1ccccn1)c1ccc(Br)s1 56.2 µM [inhibitor, partial curve]
O=C(CSc1ccccc1)NCc1ccccn1 25.1 µM [inhibitor, single point]
Cc1ccc2c(c1)c1c3n2CCN(CC(O)CNC(C)C)C3CCC1 (configuration not stated) 56.2 µM [inhibitor, partial curve]
O=C(NCc1ccc(Cl)cc1)c1csc(-c2cccnc2)n1 25.1 µM [inhibitor, full curve, poor fit]
CCN(CC)c1ccc2c(-c3ccc(S(=O)(=O)O)cc3S(=O)(=O)[O-])c3ccc(=[N+](CC)CC)cc-3oc2c1 50.1 µM [inhibitor, partial curve]
Cc1ccc(N=C2C(=O)Nc3ccc(C)c(Br)c32)cc1 56.2 µM [inhibitor, partial curve]
CCCn1c(SCC(=O)N2CCCC(C)C2)nnc1-c1cccnc1 (configuration not stated) 14.1 µM [inhibitor, partial curve]
CCOc1ccccc1C(=O)N(Cc1ccc(N(C)C)cc1)CC1CCCO1 (configuration not stated) 50.1 µM [inhibitor, partial curve]
CCCNc1c(N)n(-c2ccccc2)c(=O)[nH]c1=O 11.2 µM [inhibitor, full curve, poor fit]
COc1cc2c(cc1OC)/C(=C/C(=O)c1ccccc1F)NCC2 56.2 µM [inhibitor, partial curve]
S=c1[nH]nc(CCc2ccccc2)n1-c1ccc(Cl)cc1 89.1 µM [inhibitor, partial curve]
COc1ccc(/C=C/c2nc(N)nc(-c3ccccc3O)n2)cc1OC 28.2 µM [inhibitor, partial curve]
Cc1ccc(C([O-])=C(C(=S)NCc2ccccc2)[n+]2cccc(CO)c2)cc1[N+](=O)[O-] 63.1 µM [inhibitor, partial curve, poor fit]
O=C(COc1ccccc1[N+](=O)[O-])Nc1ccccc1N1CCCCC1 56.2 µM [inhibitor, partial curve]
CC[C@H](C)/C=C(C)/C=C/C1=CC2=CC(=O)[C@]3(C)OC(=O)[C@@H](C(C)=O)[C@@H]3C2=CO1 89.1 µM [inhibitor, single point]
CCCCCCCC(=O)Nc1cc(C(=O)NCCC)ccc1N1CCC2(CC1)CC(c1cccc(Br)c1)=NO2 3.55 µM [inhibitor, single point]
C[N+](C)(C)CCCN(Cc1ccc2c(c1)OCO2)C(=O)NC1CCCCC1 39.8 µM [inhibitor, single point]
Cc1onc(-c2cccc(Cl)c2Cl)c1C(=O)O/N=C(\N)c1ccc([N+](=O)[O-])o1 79.4 µM [inhibitor, single point]
COc1ccccc1C(=O)NNC(=O)C(=O)N1CCCCC1 25.1 µM [inhibitor, partial curve]
CCCn1c(C)cc(C(=O)CSc2nc3ccccc3c(=O)n2Cc2ccco2)c1C 1.12 µM [inhibitor, full curve]
CCn1c(NC(=O)Nc2cccc(C)c2C)cc2sccc21 100 µM [inhibitor, partial curve]
COC(=O)C[C@H]1c2cc(C(F)(F)F)ccc2S(=O)(=O)N1C1CCCC1 100 µM [inhibitor, single point]

Potency, active:
Cc1ccc(NCc2ccc(O)c3ncccc23)cc1 8.91 µM
CCC(=O)Nc1cccc(-c2nnc(SCC(=O)c3ccccc3)n2C)c1 39.8 µM
O=C(O)C1CC(C(=O)O)SS1 (configuration not stated) 31.6 µM
N=c1c2c(ncn1-c1ccccc1)Oc1ccc3ccccc3c1C2c1ccc2c(c1)OCO2 (configuration not stated) 44.7 µM
c1ccc(-c2ccccc2OCCN2CCCC2)cc1 22.4 µM
